Test results published in article PMC4336329 (PLoS ONE, 2015).
The whole screen tested about 310,000 compounds, of which about 2,200 (0.71%) showed an effect of 50% or more. The effect is printed as a negative number. The list shows a part of the results.

Target: human ether-à-go-go-related gene (hERG) potassium channel (human, UniProt Q12809)
Experiment: primary screen, population patch clamp on CHO cells stably expressing hERG

Chain of human ether-à-go-go-related gene (hERG) potassium channel (Q12809 whole entry, looked up): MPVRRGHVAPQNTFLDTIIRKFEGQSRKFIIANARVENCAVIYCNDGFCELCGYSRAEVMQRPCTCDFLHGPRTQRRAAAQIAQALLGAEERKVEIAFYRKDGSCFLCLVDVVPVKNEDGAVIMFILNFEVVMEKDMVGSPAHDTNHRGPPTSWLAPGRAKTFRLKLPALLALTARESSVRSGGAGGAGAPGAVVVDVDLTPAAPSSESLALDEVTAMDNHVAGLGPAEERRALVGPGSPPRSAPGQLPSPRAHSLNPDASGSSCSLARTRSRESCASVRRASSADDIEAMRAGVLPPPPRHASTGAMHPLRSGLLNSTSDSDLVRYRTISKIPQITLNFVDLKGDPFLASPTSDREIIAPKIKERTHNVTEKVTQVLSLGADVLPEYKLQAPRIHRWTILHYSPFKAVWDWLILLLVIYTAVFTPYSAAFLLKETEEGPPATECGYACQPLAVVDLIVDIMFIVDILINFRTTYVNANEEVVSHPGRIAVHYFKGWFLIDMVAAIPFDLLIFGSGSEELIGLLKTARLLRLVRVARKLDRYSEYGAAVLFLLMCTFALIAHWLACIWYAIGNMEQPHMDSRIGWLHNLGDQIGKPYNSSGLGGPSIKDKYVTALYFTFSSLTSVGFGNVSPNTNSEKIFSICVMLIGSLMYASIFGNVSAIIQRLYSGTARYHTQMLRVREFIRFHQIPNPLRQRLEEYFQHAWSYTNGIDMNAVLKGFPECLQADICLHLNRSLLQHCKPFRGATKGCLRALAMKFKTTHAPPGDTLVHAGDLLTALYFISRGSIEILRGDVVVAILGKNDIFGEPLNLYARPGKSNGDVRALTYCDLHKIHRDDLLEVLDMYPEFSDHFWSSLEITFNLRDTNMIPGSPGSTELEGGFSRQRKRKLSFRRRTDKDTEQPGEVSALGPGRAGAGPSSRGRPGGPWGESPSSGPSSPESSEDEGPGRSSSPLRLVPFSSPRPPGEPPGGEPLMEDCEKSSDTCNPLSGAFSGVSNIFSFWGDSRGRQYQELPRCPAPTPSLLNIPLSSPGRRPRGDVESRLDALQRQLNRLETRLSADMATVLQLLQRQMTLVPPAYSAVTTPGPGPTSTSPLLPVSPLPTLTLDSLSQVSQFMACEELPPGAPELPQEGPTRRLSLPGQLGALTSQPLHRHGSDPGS

| SMILES | hERG current change (%, negative = inhibition) at 1uM [%] |
| --- | --- |
| O=C(O)CCNC(=O)COc1ccc2c3c(c(=O)oc2c1)CCCC3 | 13.9 |
| O=[N+]([O-])c1cc(Cl)cc2c1nc(NCCO)c1ccccc12 | 14.5 |
| CC(C)CNc1oc(-c2ccco2)nc1C#N | 7.14 |
| Cc1ccccc1Cn1ccc(NC(=O)c2nn(C)cc2[N+](=O)[O-])n1 | 8.95 |
| Cc1nc2ccccc2c(=O)n1NC(=O)Nc1ccccc1 | -7.47 |
| CCC(=O)N1CCN(c2ccc(NC(=O)c3cccs3)cc2)CC1 | 11.5 |
| CCn1c(C)c(C(C)=O)c(N2CCN(c3ccc(F)cc3)CC2)nc1=S | -24.3 |
| O=C(Nc1ccccc1)c1ccccc1Oc1ccc(C(F)(F)F)cc1[N+](=O)[O-] | 4.89 |
| CCOC(=O)CSc1nc2cc(S(=O)(=O)N3CCOCC3)ccc2n1CC | -9 |
| Cc1ccc(N2CC(C(N)=O)CC2=O)cc1C (centres unmarked) | 0.182 |
| C[C@@H](NC(=O)c1cc2c([nH]c3ccccc32)c(-c2ccccc2)n1)C(=O)O | 8.28 |
| COc1ccc(C(=O)N/C(=C\c2ccco2)C(=O)NCc2cccnc2)cc1 | -48.9 |
| Cc1ccc(C(=O)CCC(=O)Nc2ncccc2O)cc1 | 20.4 |
| O=C(NCc1cc(C(F)(F)F)cc(C(F)(F)F)c1)C1CC(c2c(Cl)cccc2Cl)=NO1 (centres unmarked) | 13.7 |
| Cc1ccc(N2CC(=O)N(c3ccc(C)cc3)CC2=O)cc1 | 15.1 |
| OC(CN1CCN(c2ncc(C(F)(F)F)cc2Cl)CC1)c1ccccc1 (centres unmarked) | 1.4 |
| Cc1ccn2cc(-c3nonc3C)cc2c1 | 4.72 |
| COc1ccc([C@H]2CC(=O)C=C(c3cccc(C#N)c3)C2)cc1 | 2.28 |
| CCOC(=O)C1CCCN(C(=O)Cn2ncc3c([nH]c4ccccc43)c2=O)C1 (centres unmarked) | -3.08 |
| COc1ccccc1NC(=O)C1CCCN(S(=O)(=O)c2ccc3c(c2)CC(C)N3C(C)=O)C1 (centres unmarked) | 21.3 |
| COc1ccc(-n2nnnc2CNC(=O)C(=O)c2c(C)[nH]c3ccccc23)cc1 | 3.65 |
| CC(=O)c1sc(NC(=O)c2ccc(Cn3cc(Br)cn3)o2)nc1C | 0.922 |

| SMILES | hERG current change (%, negative = inhibition) at 1uM [%] |
| --- | --- |
| CC(C)(C)c1ccc(S(=O)(=O)N2CCN(C(=O)C3CCC3)CC2)cc1 | 10.3 |
| Cc1ccc(Cn2ccnc2SCC(=O)NC2CCCC2)cc1 | 10.7 |
| Cc1ccc(S(=O)(=O)NC2c3cccc4cccc(c34)C2Sc2n[nH]c(N)n2)cc1 (centres unmarked) | 19.5 |
| CCCCCc1ccc(-c2ccc(C(=O)O)cc2)nc1 | 2.18 |
| Cc1noc(NS(=O)(=O)c2ccc(NC(=O)CS(=O)(=O)c3ccccc3)cc2)c1C | 4.45 |
| CCOC(=O)c1nccnc1C(=O)Nc1ccc(C(F)(F)F)cc1 | 14.4 |
| Cc1ccc(Cl)cc1NC(=O)CCS(=O)(=O)c1cccc2nonc12 | 10.8 |
| O=C(NCCc1ccccc1)C(=O)NCC(c1ccco1)N1CCOCC1 (centres unmarked) | 13.8 |
| O=S(=O)(c1ccccc1)c1nnn2c1nc(NC1CCN(Cc3ccccc3)CC1)c1ccccc12 | 8.23 |
| COC(=O)C1=C(C(=O)OC)SC(=C2C(=S)C(C)(C)N(C(=O)C(C)C)c3ccccc32)S1 | 5.97 |
| O=C1c2ccc([N+](=O)[O-])cc2C(=O)N1Cc1cccnc1 | 15.7 |
| COc1ccc(C(=O)N/N=C/c2ccc(OC)c(CN3CCCc4ccccc43)c2)cc1 | -6.65 |
| Cc1c(C(=O)OCC(=O)Nc2ccc(S(N)(=O)=O)cc2)oc2c1ccc1ccccc12 | 9.1 |
| Brc1ccc(-c2csc(N/N=C/c3ccco3)n2)cc1 | 9.56 |
| COc1ccc(S(=O)(=O)N2CCC(C(=O)NCc3ccncc3)CC2)cc1OC | 14.4 |
| O=C(NNc1c2ccccc2nc2ccccc12)c1ccc(Cl)cc1 | 10.3 |
| O=C(Cn1c(-c2ccccc2)noc1=O)Nc1ccc(S(=O)(=O)N2CCOCC2)cc1 | -4.86 |
| CCOC(=O)N1CCC(NC(=O)c2ccc3c(c2)sc2nc(-c4ccc(OC)cc4)cn23)CC1 | 13.8 |
| Cc1ccc(/C(=C\CN2CCCC2)c2ccccn2)cc1.Cl | -22 |
| CCOC(=O)c1cc(C#N)c(NCc2ccccc2)nc1C | 9.63 |
| CCCCC(=O)OCc1nc2ccccc2s1 | 7.46 |
| COc1cc(C2CC(=O)N3CN(Cc4ccccc4)CSC3=C2C#N)ccc1OCc1ccccc1 (centres unmarked) | 14.8 |

| SMILES | hERG current change (%, negative = inhibition) at 1uM [%] |
| --- | --- |
| COc1ccccc1OCCC(=O)OCC(=O)c1c(N)n(C)c(=O)n(C)c1=O | 1.47 |
| CCC(=O)NCC(c1cccs1)S(=O)(=O)c1ccc(C)cc1 (centres unmarked) | 13.7 |
| COC(=O)c1c(NC(=O)CN2CCCc3ccccc32)sc(C)c1C | 12.3 |
| Cc1ccc(C(=O)OCC(=O)NCc2ccco2)cc1 | -0.27 |
| COc1ccc(/C=N/Nc2nc3ccccc3c(=O)[nH]2)cc1 | -5.9 |
| CCOC(=O)Cc1csc(NC(=O)c2sc3nc4c(C)cc(C)cc4cc3c2N)n1 | -0.344 |
| COCCNC(=O)c1cc(-c2ccc(OC)c(OC)c2)on1 | -0.75 |
| COc1ccccc1NC(c1cccnc1)c1ccc2cccnc2c1O (centres unmarked) | 11.4 |
| CCCc1nnc(SCC(=O)Nc2cccc(C(F)(F)F)c2)o1 | 8.53 |
| CCC(=O)NC(=S)Nc1ccc(NC(=O)COc2ccc(Cl)cc2Cl)cc1 | 10.6 |
| CCCC(CCC)C(=O)Oc1cc(C)[nH]c(=O)c1[N+](=O)[O-] | 5.72 |
| Cc1ccccc1NC(=O)c1ccno1 | 12.9 |
| COc1ccc(C(C(=O)NC2CCCCC2)N(C(=O)c2snc(C(N)=O)c2N)c2ccccc2OC)cc1 (centres unmarked) | 17.4 |
| COc1ccc(/C=C/C(=O)Oc2ccc(C)cc2)cc1 | 1.29 |
| CN(C)S(=O)(=O)c1ccc(N2CCCC2)c(C(=O)Nc2nc3c(ccc4ccccc43)s2)c1 | 16.5 |
| Cn1c(=O)c2[nH]c(-c3ccccc3O)nc2n(C)c1=O | 17.2 |
| COc1ccc(-n2cc(-c3ccccc3)c3c(NN4CCOCC4)ncnc32)cc1 | -7.34 |
| O=C(CSc1nccc2ccccc12)N1CCN(Cc2ccc3c(c2)OCO3)CC1 | -14.4 |
| CC(NC(=O)Cn1cnc([N+](=O)[O-])n1)c1ccccc1 (centres unmarked) | 15.4 |
| O=C(CSc1nnc(NC(=O)C2CC2)s1)NCc1cccs1 | 7.31 |
| NNC(=O)c1nc[nH]c1C(=O)Nc1ccccc1[N+](=O)[O-] | 16.6 |
| C#CCOCCOCCOCCNc1nc(N2CCN(C(=O)CCCCCCCCCCNC(=O)[C@H](CCCCN)n3cc(C)nn3)CC2)nc(N2CCN(C(=O)CCCCCCCCCCNC(=O)[C@H](CCCCN)n3cc(CCCC(=O)O)nn3)CC2)n1 | 17.3 |

| SMILES | hERG current change (%, negative = inhibition) at 1uM [%] |
| --- | --- |
| Cc1ccc(S(=O)(=O)NCc2ccco2)cc1C | 1.95 |
| Cc1ccc2oc(C(=O)N(CCO)Cc3ccccc3)c(C)c2c1 | 11.9 |
| COC(=O)c1cccc(NC(=S)NC(C)C)c1 | 7.06 |
| Cc1ccccc1-c1nc(CN2CCC(C(=O)NCCCN3CCCC3)CC2)c(C)o1 | 17.2 |
| O=C(c1ccccc1NS(=O)(=O)c1ccc(F)cc1)N1CCCCC1 | -4.95 |
| C=CCN1C(=O)C(=O)N(CC(=O)c2ccc3c(c2)CCCC3)C1=O | 3.04 |
| Nc1nc(-c2ccccn2)nc(N)c1Cc1ccccc1F | 9.09 |
| Cc1ccc(C)c(NC(=O)CCc2nnc3ccc(N4CCCC4)nn23)c1 | 3.57 |
| CCOc1ccc(NC(=S)Nc2ccc(C)c([N+](=O)[O-])c2)cc1.Cl | 15.8 |
| N[C@@]12CCc3nonc3[C@]1(O)CC(c1ccccc1)=[N+]2[O-] | 2.68 |
| O=C(N1CCOCC1)C12CCC3CC(CC(C3)C1)C2 | 0.677 |
| COc1cc(C2NC(=S)NC(c3ccccc3)=C2C(C)=O)cc(Br)c1OCC(N)=O (centres unmarked) | 6.27 |
| O=S(=O)(NC1CCCCC1Oc1ccccc1)c1ccccc1 (centres unmarked) | 10.6 |
| O=C(c1ccc(-c2ccccc2)c(F)c1)C1CCCN(CCO)C1 (centres unmarked) | 7.65 |
| C[C@H](NC(=O)c1ccccc1Cl)C(=O)OCc1cn2cc(Cl)ccc2n1 | 13.3 |
| C=CCn1c(CCNC(=O)c2ccccc2F)nnc1SCC(=O)Nc1nc2ccccc2s1 | -14.2 |
| COc1ccc(CC(NC(=O)c2ccccc2)C(=O)NCC(=O)O)cc1 (centres unmarked) | 10.6 |
| COC(=O)c1sc(-c2ccc(Cl)cc2)cc1N | 3.07 |
| CC(C)CCN(N=O)[C@@H](Cc1ccccc1)CN(N=O)[C@@H](Cc1ccccc1)CN(C)N=O.[Na+] | 18.1 |
| O=C(c1cc2c(cc1Br)OCCCO2)N1CCCCC1 | 10.5 |
